Source: patent US6323219A, “Methods for treating immunomediated inflammatory disorders” (Ortho-McNeil Pharmaceutical, Inc., priority 1999, dated 2001)

Tests used:
Yucatan swine skin = test: Histology of treated Yucatan swine skin (H&E, F&M); format: in vivo
MelanoDerm equivalents = test: Electron microscopy of MelanoDerm equivalents; format: cell-based, human

For CN[C@H](Cc1ccccc1)C(=O)N1CCC[C@H]1C(=O)N[C@@H](CCCNC(=N)N)C(=O)c1nc2ccccc2s1 [Compound I], the “F&M histology: pigmentation” value (Yucatan swine skin; 10 μM, FIG. 10B) was “reduced pigmentation”, the “F&M histology: pigmentation” value (Yucatan swine skin; 50 and 250 μM, FIGS. 10C, 10D) was “lightest” and the “dendrites containing melanosomes within keratinocytes” value (MelanoDerm equivalents; FIG. 11C) was “easily identified within treated keratinocytes”. The “melanosome content and maturity within melanocytes” value (MelanoDerm equivalents; relative to untreated controls, FIGS. 11A, 11B) was “more melanosomes, but less mature melanosomes”.
